# Results: the supplement of paper PMC8728848
# The other results are listed elsewhere or left out.
# How the values were obtained:
# Assay in all cases: glycan array binding signal (z-score within array); higher = stronger binding
# Conditions in all cases: glycan notation: IUPAC condensed, linker removed
# Fuc(a1-2)Gal = biological target: Fuc(a1-2)Gal
# Summary of the method: (§1)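 The binding signal is a Z-score computed within each array. Data were drawn from 3228 arrays in the Consortium for Functional Glycomics database, restricted to those with a known protein sequence. Scores were averaged over arrays of the same protein sequence at different concentrations or buffers, and over linkers, and negative values can be taken as non-binding.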
# Fuc(a1-2)Gal(b1-3)GalNAc = biological target: Fuc(a1-2)Gal(b1-3)GalNAc
# Summary of the method: as §1
# [1] = biological target: Fuc(a1-2)Gal(b1-3)GalNAc(a1-3)[Fuc(a1-2)]Gal(b1-4)Glc
# Summary of the method: as §1
# [2] = biological target: Fuc(a1-2)Gal(b1-3)GalNAc(a1-3)[Fuc(a1-2)]Gal(b1-4)GlcNAc
# Summary of the method: as §1
# [3] = biological target: Fuc(a1-2)Gal(b1-3)GalNAc(b1-3)Gal
# Summary of the method: as §1
# [4] = biological target: Fuc(a1-2)Gal(b1-3)GalNAc(b1-3)Gal(a1-4)Gal(b1-4)Glc
# Summary of the method: as §1
# [5] = biological target: Fuc(a1-2)Gal(b1-3)GalNAc(b1-4)[Neu5Ac(a2-3)]Gal(b1-4)Glc
# Summary of the method: as §1
# Fuc(a1-2)Gal(b1-3)GlcNAc = biological target: Fuc(a1-2)Gal(b1-3)GlcNAc
# Summary of the method: as §1
# [6] = biological target: Fuc(a1-2)Gal(b1-3)GlcNAc(b1-2)Man(a1-3)[Fuc(a1-2)Gal(b1-3)GlcNAc(b1-2)Man(a1-6)]Man(b1-4)GlcNAc(b1-4)GlcNAc
# Summary of the method: as §1
# [7] = biological target: Fuc(a1-2)Gal(b1-3)GlcNAc(b1-2)Man(a1-3)[Fuc(a1-2)Gal(b1-3)GlcNAc(b1-2)Man(a1-6)]Man(b1-4)GlcNAc(b1-4)[Fuc(a1-6)]GlcNAc
# Summary of the method: as §1
# [8] = biological target: Fuc(a1-2)Gal(b1-3)GlcNAc(b1-3)Gal(b1-4)Glc
# Summary of the method: as §1
# [9] = biological target: Fuc(a1-2)Gal(b1-3)GlcNAc(b1-3)GalNAc
# Summary of the method: as §1
# [10] = biological target: Fuc(a1-2)Gal(b1-3)GlcNAc(b1-3)[Fuc(a1-2)Gal(b1-3)GlcNAc(b1-6)]GalNAc
# Summary of the method: as §1
# [11] = biological target: Fuc(a1-2)Gal(b1-3)GlcNAc(b1-3)[Gal(b1-4)GlcNAc(b1-6)]Gal(b1-4)Glc
# Summary of the method: as §1
# [12] = biological target: Fuc(a1-2)Gal(b1-3)GlcNAc(b1-3)[Neu5Ac(a2-6)Gal(b1-4)GlcNAc(b1-6)]Gal(b1-4)Glc
# Summary of the method: as §1
# [13] = biological target: Fuc(a1-2)Gal(b1-3)GlcNAc6S
# Summary of the method: as §1
# [14] = biological target: Fuc(a1-2)Gal(b1-3)[Fuc(a1-4)]GlcNAc
# Summary of the method: as §1
# [15] = biological target: Fuc(a1-2)Gal(b1-3)[Fuc(a1-4)]GlcNAc(b1-2)Man(a1-3)[Fuc(a1-2)Gal(b1-3)[Fuc(a1-4)]GlcNAc(b1-2)Man(a1-3)]Man(b1-4)GlcNAc(b1-4)GlcNAc
# Summary of the method: as §1
# [16] = biological target: Fuc(a1-2)Gal(b1-3)[Fuc(a1-4)]GlcNAc(b1-2)Man(a1-3)[Fuc(a1-2)Gal(b1-3)[Fuc(a1-4)]GlcNAc(b1-2)Man(a1-6)]Man(b1-4)GlcNAc(b1-4)[Fuc(a1-6)]GlcNAc(b1-4)[Fuc(a1-6)]GlcNAc
# Summary of the method: as §1
# [17] = biological target: Fuc(a1-2)Gal(b1-3)[Fuc(a1-4)]GlcNAc(b1-3)[Fuc(a1-3)[Gal(b1-4)]GlcNAc(b1-6)]Gal(b1-4)Glc
# Summary of the method: as §1
# [18] = biological target: Fuc(a1-2)Gal(b1-3)[Fuc(a1-4)]GlcNAc(b1-3)[Gal(b1-4)GlcNAc(b1-6)]Gal(b1-4)Glc
# Summary of the method: as §1
# Fuc(a1-2)Gal(b1-4)Glc = biological target: Fuc(a1-2)Gal(b1-4)Glc
# Summary of the method: as §1
# Fuc(a1-2)Gal(b1-4)Glc6S = biological target: Fuc(a1-2)Gal(b1-4)Glc6S
# Summary of the method: as §1
# Fuc(a1-2)Gal(b1-4)GlcNAc = biological target: Fuc(a1-2)Gal(b1-4)GlcNAc
# Summary of the method: as §1
# [19] = biological target: Fuc(a1-2)Gal(b1-4)GlcNAc(b1-2)Man
# Summary of the method: as §1
# [20] = biological target: Fuc(a1-2)Gal(b1-4)GlcNAc(b1-2)Man(a1-3)[Fuc(a1-2)Gal(b1-4)GlcNAc(b1-2)Man(a1-6)]Man(b1-4)GlcNAc(b1-4)GlcNAc
# Summary of the method: as §1
# [21] = biological target: Fuc(a1-2)Gal(b1-4)GlcNAc(b1-2)Man(a1-3)[Fuc(a1-2)Gal(b1-4)GlcNAc(b1-2)Man(a1-6)]Man(b1-4)GlcNAc(b1-4)[Fuc(a1-6)]GlcNAc
# Summary of the method: as §1
# [22] = biological target: Fuc(a1-2)Gal(b1-4)GlcNAc(b1-2)[Fuc(a1-2)Gal(b1-4)GlcNAc(b1-4)]Man(a1-3)[Fuc(a1-2)Gal(b1-4)GlcNAc(b1-2)Man(a1-6)]Man(b1-4)GlcNAc(b1-4)GlcNAc
# Summary of the method: as §1
# [23] = biological target: Fuc(a1-2)Gal(b1-4)GlcNAc(b1-3)Gal(b1-4)GlcNAc
# Summary of the method: as §1
# [24] = biological target: Fuc(a1-2)Gal(b1-4)GlcNAc(b1-3)Gal(b1-4)GlcNAc(b1-2)Man(a1-3)[Fuc(a1-2)Gal(b1-4)GlcNAc(b1-3)Gal(b1-4)GlcNAc(b1-2)Man(a1-6)]Man(b1-4)GlcNAc(b1-4)GlcNAc
# Summary of the method: as §1
# [25] = biological target: Fuc(a1-2)Gal(b1-4)GlcNAc(b1-3)Gal(b1-4)GlcNAc(b1-3)Gal(b1-4)GlcNAc
# Summary of the method: as §1
# [26] = biological target: Fuc(a1-2)Gal(b1-4)GlcNAc(b1-3)GalNAc
# Summary of the method: as §1
# [27] = biological target: Fuc(a1-2)Gal(b1-4)GlcNAc(b1-3)[Fuc(a1-2)Gal(b1-4)GlcNAc(b1-6)]GalNAc
# Summary of the method: as §1
# [28] = biological target: Fuc(a1-2)Gal(b1-4)GlcNAc(b1-3)[Fuc(a1-3)[Gal(b1-4)]GlcNAc(b1-6)]Gal(b1-4)Glc
# Summary of the method: as §1
# [29] = biological target: Fuc(a1-2)Gal(b1-4)GlcNAc(b1-6)GalNAc
# Summary of the method: as §1
# [30] = biological target: Fuc(a1-2)Gal(b1-4)GlcNAc6S
# Summary of the method: as §1
# [31] = biological target: Fuc(a1-2)Gal(b1-4)[Fuc(a1-3)]GlcNAc
# Summary of the method: as §1
binder,measurement,setting,value
OGAA (protein) MVQKESQATLEERESELSSNPAASAGASLEPPAAPAPGEDNPAGAGGAAVAGAAGGARRFLCGVVEGFYGRPWVMEQRKELFRRLQKWELNTYLYAPKDDYKHRMFWREMYSVEEAEQLMTLISAAREYEIEFIYAISPGLDITFSNPKEVSTLKRKLDQVSQFGCRSFALLFADIDHNMCAADKEVFSSFAHAQVSITNEIYQYLGEPETFLFCPTEYCGTFCYPNVSQSPYLRTVGEKLLPGIEVLWTGPKVVSKEIPVESIEEVSKIIKRAPVIWDNIHANDYDQKRLFLGPYKGRSTELIPRLKGVLTNPNCEFEANYVAIHTLATWYKSNMNGVRKDVVMTDSEDSTVSIQIKLENEGSDEDIETDVLYSPQMALKLALTEWLQEFGVPHQY,glycan array binding signal (z-score),Fuc(a1-2)Gal,-0.067
same,glycan array binding signal (z-score),Fuc(a1-2)Gal(b1-3)GalNAc,-0.064
same,glycan array binding signal (z-score),[1],-0.075
same,glycan array binding signal (z-score),[2],-0.085
same,glycan array binding signal (z-score),[3],-0.117
same,glycan array binding signal (z-score),[4],-0.109
same,glycan array binding signal (z-score),[5],-0.092
same,glycan array binding signal (z-score),Fuc(a1-2)Gal(b1-3)GlcNAc,-0.023
same,glycan array binding signal (z-score),[6],-0.104
same,glycan array binding signal (z-score),[7],0.026
same,glycan array binding signal (z-score),[8],-0.057
same,glycan array binding signal (z-score),[9],0.009
same,glycan array binding signal (z-score),[10],-0.11
same,glycan array binding signal (z-score),[11],-0.078
same,glycan array binding signal (z-score),[12],-0.099
same,glycan array binding signal (z-score),[13],-0.081
same,glycan array binding signal (z-score),[14],-0.076
same,glycan array binding signal (z-score),[15],0.285
same,glycan array binding signal (z-score),[16],0.251
same,glycan array binding signal (z-score),[17],-0.101
same,glycan array binding signal (z-score),[18],-0.127
same,glycan array binding signal (z-score),Fuc(a1-2)Gal(b1-4)Glc,-0.066
same,glycan array binding signal (z-score),Fuc(a1-2)Gal(b1-4)Glc6S,-0.077
same,glycan array binding signal (z-score),Fuc(a1-2)Gal(b1-4)GlcNAc,-0.108
same,glycan array binding signal (z-score),[19],-0.087
same,glycan array binding signal (z-score),[20],-0.049
same,glycan array binding signal (z-score),[21],0.206
same,glycan array binding signal (z-score),[22],-0.031
same,glycan array binding signal (z-score),[23],-0.086
same,glycan array binding signal (z-score),[24],0.006
same,glycan array binding signal (z-score),[25],-0.017
same,glycan array binding signal (z-score),[26],-0.064
same,glycan array binding signal (z-score),[27],0.083
same,glycan array binding signal (z-score),[28],-0.108
same,glycan array binding signal (z-score),[29],-0.087
same,glycan array binding signal (z-score),[30],-0.114
same,glycan array binding signal (z-score),[31],-0.07
